Assay results published in the RNAGym collection of RNA variant scans (doi:10.7554/elife.90254).
Read counts are not given, so values of variants with three or more changes are uncertain.

B1: LINE1-mini (parent)
chain: GGCAGAGCUCAACACAGCGUGGCAAAGUGGCUGUGGCUAGACUGCC

Variants of: B1
Experiment: self-cleavage, relative activity (ratio to wild type); higher = more cleavage; in vitro, sequencing; the parent is a self-cleaving ribozyme

| Variant | self-cleavage |
| --- | --- |
| GGCCGAGCUCAACACAGCGUGGCAAAGUGGCUGUUGCUAGACGGCC [A4C G35U U43G] | 0.03 |
| GGCAGAGCUCAACACAGCGUGGCAAAGUGGCUGAGGCUAGUGUGCC [U34A A41U C42G] | 0.1 |
| GGAAGAGUUCAACACUGCGUGGCUAAGUGGCUGUGGCUAGACUGCC [C3A C8U A16U A24U] | 0.94 |
| GGCAGAGCUGAACUCAGCGAGGUAAAGUGGCUGUGUCUAGACUGCC [C10G A14U U20A C23U G36U] | 0 |
| CGCAGAGAUCAACACAUCGUGGCAAAGUGGCUAUGGUUAGACCGCC [G1C C8A G17U G33A C37U U43C] | 0.04 |
| GGCAGAGCUCAACAGAGAGUGGCAAAGUGGCUGUGGCUAGACUACC [C15G C18A G44A] | 0.08 |
| GGCAGAACUCAACACUGCGUGGCAAAGUGGCCGUGCCUAGCCUGCC [G7A A16U U32C G36C A41C] | 0.05 |
| GGCAGAGCUCAACACAGGGUGGGAAAGUGGGUUUGGCUAGACUGCC [C18G C23G C31G G33U] | 0.02 |
| GGCAGAGCAAAACACAGCGUGGCAAAGUGGUUGUGGCUAGACUGCC [U9A C10A C31U] | 0.05 |
| GGCAGUGCUCAACACGCCGUGGCAAAGUGGGUGUGGCCAGACUGCC [A6U A16G G17C C31G U38C] | 0.08 |
| GGCAGAGCUCAACACAGCCUGGCAAAGUGGCUGUGGUUAGAGUGCC [G19C C37U C42G] | 0 |
| GGCAGAGCUCGAGAGAGCGUGGCAAAGUGCCUAUGGCUAGACUGCC [A11G C13G C15G G30C G33A] | 0.02 |
| AGCAGUGCUCAACACAGCGUGGCAAAGUGGCUGUGGCUAAACUGAC [G1A A6U G40A C45A] | 0.22 |
| GGCAGAGCUCAACACGGCGUGGCAAAGUGGCGGUGGCUAGACUGUC [A16G U32G C45U] | 0 |
| GGCAGAGCUCAACACAGCUUGCCAAAGUGGCUGUGUGUAGACUGUC [G19U G22C G36U C37G C45U] | 0.02 |
| GGCAGGGCUCAACACAGCGUGGCAAAGUGGCUGUGGUUAGACGGCC [A6G C37U U43G] | 0.01 |
| GGCACAGCUCGAUAAAGCGUGGCAAAGUGGCUGUGCCCAGACUGCC [G5C A11G C13U C15A G36C U38C] | 0.01 |
| GGCAGAGCUCAAUACAGUGUGGCAAAGUAGCUGUGGCUAGAUUGCC [C13U C18U G29A C42U] | 0.01 |
| GGCGGAGCUCAACACAGCGUGGCAGAGCGGCUGUGGAUAGUCUGCC [A4G A25G U28C C37A A41U] | 0.21 |

| Variant | self-cleavage |
| --- | --- |
| CGCAGAGUUCAACACAGCGUGGCAAAGUGGCUGUGGCUAUACUGCC [G1C C8U G40U] | 0.02 |
| GGCAGAGCUCAACACAGCGUGGCAAAGUGGGUGUUGCUGGACUGCC [C31G G35U A39G] | 0.03 |
| GGCAGAGAUGAACACAGCGUGGCAAAGUAGCUGUGGCUAGACUGCU [C8A C10G G29A C46U] | 0.01 |
| GGCAGAGCUCAACAGAGCGUGACAAAGUGGCUGUGGCUCGACUGCC [C15G G22A A39C] | 0.04 |
| UGCAGAUCUCAACACAGCGGGGCAAAGUGGCUGUGGCUAGACUGCC [G1U G7U U20G] | 0.01 |
| GGAAGAGAUCAACUCAGCGUGGCAAAGUGGUUGUGGCUAGACUGCC [C3A C8A A14U C31U] | 0.47 |
| GGCAGAGCUCAACACAGCGUGGAACAGUGGGAGUGGCUAGACUGCC [C23A A25C C31G U32A] | 0.13 |
| GGCACAGCUCAACACAGCGUGGCAAAGUGGAUGUGGCUAAACUGCC [G5C C31A G40A] | 0.03 |
| CGCAGAGCUCAACCCAUCGUGGCAAAGUGGCUGGGUCUAGACAGCC [G1C A14C G17U U34G G36U U43A] | 0.01 |
| GGCAGAGCUUAACACAGCGUGGUAAAGUGGCUGUGGCUAGACUCCC [C10U C23U G44C] | 0.07 |
| GGCAGAGCUCAACACAACGUGGCAAAGUGGCUGUGGCGAGAUUGCC [G17A U38G C42U] | 0 |
| GAUAGAGGUCAACACAGCGUGGCAAAGUGGCUGUGGCUAGACUGCC [G2A C3U C8G] | 0.07 |
| GGCUGAGCUCAACACAGCGUGGCAAAACGGCUAUGGCUAGACUGCC [A4U G27A U28C G33A] | 0.12 |
| GGCAGAGCUCAACACAGCGUGGCAAAGGCGUUGUGCAUAGACUGCC [U28G G29C C31U G36C C37A] | 0.1 |
| GGCAGAGUUCAACACAGCGUGGCAAAGUGGCUGUAGCUAAACUGCC [C8U G35A G40A] | 0 |
| GGCAGAGCUCAACAUGGCGUGGCAAAGUGGCUGUGGCUAUACUGCC [C15U A16G G40U] | 0.07 |
| GGCAGAGCUCAACACAGCCUGGCAAAGUGGCUGUGUCUAGACAGCC [G19C G36U U43A] | 0.01 |
| GGCAGAGUGCAACACAGCUCGGUAAAGUGGCUGAGGCUAGACUGCC [C8U U9G G19U U20C C23U U34A] | 0.04 |
| GGCAGAGAUCAACACAUCGUGGCAAAGUGGCUGUGGCAAGACUGCC [C8A G17U U38A] | 0.11 |

| Variant | self-cleavage |
| --- | --- |
| GUAAGAGCUCAACUCAGCGUGGCAAAGUGGCUGUGGCUAGACUGCC [G2U C3A A14U] | 0.16 |
| GGCAAAGCUUAAGACAGCGUGGCAGAGUGGCUGUGGCUAGGCUGCC [G5A C10U C13G A25G A41G] | 0.04 |
| GGCAGAGCUGAACCCAGCGUGGUAAAGUGGCUGUGGCUAGACUGCC [C10G A14C C23U] | 0.01 |
| GGCAGAGCUCGACACAGCGUGGCAAAGUGGCUGUUGCUUGUCUGCC [A11G G35U A39U A41U] | 0.01 |
| GGCAGAGCUCAAAGCAGCGUGGCAAAGUGGCUGUGGUUAGACUGCC [C13A A14G C37U] | 0.12 |
| GGCAGAACUCAACACAGCGUUGCAAAGUGGUUGUGGCUAGACUGCC [G7A G21U C31U] | 0.13 |
| GGCAGAACCCAACACAGCGUGGCAAAGUGGCUGUGGCUAGACUACC [G7A U9C G44A] | 0.01 |
| GGCAGAGCUCAACAGAGCGAGGCAAAGUGGAUGUGGCUAGAAUGAC [C15G U20A C31A C42A C45A] | 0.03 |
| GGCAGAGCUCAACUUAGCGUAGCAAAGUGGCUUUGGCUAGACUGCC [A14U C15U G21A G33U] | 0.08 |
| GGCAGAGCUCAACACAGCGUGGCAAAGAGGCUGUGGCUACACUAUC [U28A G40C G44A C45U] | 0.06 |
| GGCAGAUAUCAACACAGUGUGGCAAAGUGGCUGUGGCUAGACUGCC [G7U C8A C18U] | 0.25 |
| GGCAGAGCUCAACACAGUAUGGCAACGUGGCUGUGGAUAGACUGCU [C18U G19A A26C C37A C46U] | 0.05 |
| UGUCGAGCUCAAUACAGCGUGGCAAAGUGGGUAUGGCUAGACUGCC [G1U C3U A4C C13U C31G G33A] | 0.02 |
| GGCAGAUCUCCACACAGCGUGGGUAAGUGGCUGUGGCUAGACUGCC [G7U A11C C23G A24U] | 0.01 |
| GGAAGAGCUCAACACAGCGUGAAAAAGAGGCUGUUGCUAGACUGCC [C3A G22A C23A U28A G35U] | 0.42 |
| GGCAGAGCUCAACACUGCGUGGCAAAGUGUCUGUGACUAGACUGCC [A16U G30U G36A] | 0.03 |
| GGCAGAGCUCCACACAGCGUGGCAGCGCGGCUGUGGCUAGACUGCC [A11C A25G A26C U28C] | 0.01 |
| GGCAGAGCUCAACACAGCGUCGUUAAGUGGCUGUGGCUAGAAUGCC [G21C C23U A24U C42A] | 0.3 |
